Results published in PubChem BioAssay AID894 (National Center for Advancing Translational Sciences (NCATS), 2007).
In all, about 150,000 compounds went through this assay and about 6,500 (4.3%) were called active. The shares of active, inactive and inconclusive entries below differ from those in the screen. The call rests on the fitted dose curve; in most records, active means well fitted inhibition curve with a large enough effect (not every such curve was filed as active); inconclusive means small, poorly fitted or top-dose-only effect, or another doubt; inactive means no such curve, though single readings can be large or run the other way. Potencies of inconclusive entries are doubtful fits and often do not repeat.

Biological target: 15-hydroxyprostaglandin dehydrogenase [NAD(+)] (Homo sapiens) (UniProt P15428)
Test: qHTS Assay for Inhibitors of HPGD (15-Hydroxyprostaglandin Dehydrogenase)
Conditions: purified HPGD, NADH fluorescence kinetic, PGE2 substrate; activity change, negative = inhibition: active compounds read low
Method in brief: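 20 nM HPGD preincubated 15 min at room temperature with compound in 50 mM Tris-HCl pH 8, 0.01% Tween 20. Started with 1 mM NAD+ and 30 uM prostaglandin E2; NADH fluorescence (360/450 nm) read 5 times over 30-s intervals, last minus first.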
On the % scale 0 is the no-effect control and ±100 the full control effect; potency means the concentration at half of the fitted maximal effect; tags describe the fitted curve by direction and shape.

Sequence of UniProt P15428 (P15428 whole entry, looked up): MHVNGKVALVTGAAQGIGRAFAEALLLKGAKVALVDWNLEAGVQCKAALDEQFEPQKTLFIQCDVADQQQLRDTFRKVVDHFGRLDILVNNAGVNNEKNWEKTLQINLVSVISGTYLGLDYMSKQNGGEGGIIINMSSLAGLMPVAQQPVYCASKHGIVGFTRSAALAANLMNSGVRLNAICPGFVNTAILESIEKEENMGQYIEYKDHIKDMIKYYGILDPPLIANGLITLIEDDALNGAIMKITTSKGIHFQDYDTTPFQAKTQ

Activity change, negative = inhibition, inactive:
O=C(CN(c1cccc(Cl)c1)S(=O)(=O)c1ccc(Cl)cc1)N1CCc2ccccc2C1 -16.9%
CCCCNC(=S)N(C)/N=C/c1c(F)cccc1F -8.11%
OCCOCCn1c2ccccc2c2ccccc21 -13.8%
O=[N+]([O-])c1ccccc1S(=O)(=O)NCC1CCC(CNCC2CCc3ccccc3C2)CC1 (centres undefined) -12.4%
Cc1cccc(CCNC(=O)C2CCCN(S(=O)(=O)c3cccc4nsnc34)C2)c1 (centres undefined) -19.7%

Potency, active:
O=C1C=CC(=O)N1c1ccc(OC(F)F)cc1 7.08 µM

Potency, inconclusive:
CCN1C(=O)c2cccc3c(S(=O)(=O)NCc4ccccn4)ccc1c23 25.1 µM [inhibitor, partial curve]
Cc1cccc(-n2c(N)c(C(=O)NCCN3CCOCC3)c3nc4ccccc4nc32)c1 31.6 µM [inhibitor, partial curve]
CC(C)CCNC(=O)c1ccc2c(c1)ncn2C1CCCCC1 11.2 µM [inhibitor, partial curve, poor fit]
C=CCn1cc(/C=N\NC(=O)c2cc3c(ccc4ccccc43)o2)c2ccccc21 31.6 µM [inhibitor, partial curve]
O=C(O)c1cc(O)c2c(c1)C(=O)c1cccc(O)c1C2=O 35.5 µM [inhibitor, partial curve, poor fit]
COc1ccccc1/C=C\C=N\NC(=O)CCn1nnc2ccccc21 31.6 µM [inhibitor, partial curve]
COC(=O)c1cc(CNC(=O)c2ccccc2Cl)ccc1OC 7.94 µM [inhibitor, partial curve]
CN1C2C=C3C(C#N)=C(N)C(C#N)(C#N)[C@@H](c4cccs4)C3C1CC2 (some centres undefined) 20 µM [inhibitor, partial curve]
CC1CCCCC1NC(=O)CSc1nnc(COc2ccccc2Cl)o1 (centres undefined) 5.62 µM [inhibitor, partial curve]
CCOC(=O)c1cnn(C(=O)c2ccccc2)c1N 39.8 µM [inhibitor, partial curve, poor fit]
COc1ccccc1C(=O)Nc1cc2cc(Br)ccc2oc1=O 20 µM [inhibitor, partial curve]
Cc1cc(N)n2ncc(-c3ccc(Cl)cc3)c2n1 22.4 µM [inhibitor, partial curve]
COc1cc2cc(CN(CCCO)S(=O)(=O)c3ccccc3)c(=O)[nH]c2cc1OC 35.5 µM [inhibitor, partial curve]
